Test results from publication PMC4336329 (PLoS ONE, 2015).
About 14,000 (4.5%) of roughly 310,000 compounds showed an effect of 50% or more. The effect is printed as a negative number. This is one part of the list.

Each compound was assayed against human ether-à-go-go-related gene (hERG) potassium channel (human, UniProt Q12809) (assay: primary screen, population patch clamp on CHO cells stably expressing hERG).
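Note: peak tail current of the secondary pulse compared with the same well before compound.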

human ether-à-go-go-related gene (hERG) potassium channel, sequence (Q12809 whole entry, looked up): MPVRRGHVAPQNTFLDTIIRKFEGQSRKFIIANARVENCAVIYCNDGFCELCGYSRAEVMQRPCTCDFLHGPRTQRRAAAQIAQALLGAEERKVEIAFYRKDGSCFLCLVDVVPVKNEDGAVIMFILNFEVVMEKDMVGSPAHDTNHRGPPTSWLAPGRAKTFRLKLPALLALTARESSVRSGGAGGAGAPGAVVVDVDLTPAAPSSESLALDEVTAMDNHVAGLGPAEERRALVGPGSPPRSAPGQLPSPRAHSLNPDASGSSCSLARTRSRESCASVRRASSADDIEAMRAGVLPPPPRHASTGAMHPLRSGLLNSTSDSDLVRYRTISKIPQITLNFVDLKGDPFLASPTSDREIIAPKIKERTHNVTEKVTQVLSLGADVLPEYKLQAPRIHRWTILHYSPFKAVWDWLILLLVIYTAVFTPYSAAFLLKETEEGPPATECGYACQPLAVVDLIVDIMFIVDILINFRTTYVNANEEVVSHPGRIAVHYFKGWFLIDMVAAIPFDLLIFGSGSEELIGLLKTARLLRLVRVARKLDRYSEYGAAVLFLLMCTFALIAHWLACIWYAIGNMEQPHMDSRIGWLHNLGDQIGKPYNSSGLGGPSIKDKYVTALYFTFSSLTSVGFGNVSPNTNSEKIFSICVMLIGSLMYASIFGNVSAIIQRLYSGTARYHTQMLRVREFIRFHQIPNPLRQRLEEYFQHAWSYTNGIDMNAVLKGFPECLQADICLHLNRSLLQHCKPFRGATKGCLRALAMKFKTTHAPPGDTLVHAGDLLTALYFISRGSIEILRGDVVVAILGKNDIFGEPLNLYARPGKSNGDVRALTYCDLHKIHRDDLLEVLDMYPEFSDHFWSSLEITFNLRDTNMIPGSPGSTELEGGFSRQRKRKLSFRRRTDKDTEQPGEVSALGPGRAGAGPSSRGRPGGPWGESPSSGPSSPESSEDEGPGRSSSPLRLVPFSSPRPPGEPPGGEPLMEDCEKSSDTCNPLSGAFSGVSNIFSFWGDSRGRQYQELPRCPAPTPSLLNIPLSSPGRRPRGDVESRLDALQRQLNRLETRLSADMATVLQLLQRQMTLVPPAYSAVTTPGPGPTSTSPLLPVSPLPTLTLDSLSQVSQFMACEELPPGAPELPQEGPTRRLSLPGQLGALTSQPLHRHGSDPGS

First: CCOC(=O)c1c(C)c(C(=O)N2CCN(c3ccccc3)CC2)c(C)n1C
Second: CCOC(=O)c1c(CSc2ccccc2)n(C)c2ccc(O)c(CN3CCN(C)CC3)c12
The “hERG current change (%, negative = inhibition) at 10uM” value of the first is higher: 2.11% for the first, -22.6% for the second.

First: COc1cc(-c2nc(C(=O)NCC3CCCO3)cc3c2[nH]c2ccccc23)cc(OC)c1OC (centres unmarked)
Second: O=C(NCC1CCCO1)c1ccc2c(c1)ncn2-c1cccc(F)c1 (centres unmarked)
The “hERG current change (%, negative = inhibition) at 10uM” value of the first is higher: -7.94% for the first, -10.2% for the second.

Going from `COc1ccc(-c2cnnn2-c2ccc(NC(=O)/C=C/c3ccc(OC)c(OC)c3)cc2)cc1` to `CCc1ccc(NC(=O)CNC(=O)c2nn(-c3ccc(OC)cc3)c(=O)c3ccccc23)cc1`, the “hERG current change (%, negative = inhibition) at 10uM” value rises from -5.92% to -2.44%.

First: Cc1cc(-c2ccc(N=Nc3c(S(=O)(=O)[O-])cc4cc(S(=O)(=O)[O-])cc(N)c4c3O)c(C)c2)ccc1N=Nc1c(S(=O)(=O)[O-])cc2cc(S(=O)(=O)[O-])cc(N)c2c1O.[Na+]
Second: C/C(=N\NS(=O)(=O)c1ccc([N+](=O)[O-])cc1)c1ccc(NC(=O)c2ccco2)cc1
The “hERG current change (%, negative = inhibition) at 10uM” value of the first is higher: 9.05% for the first, 5.33% for the second.

Compared with `Cc1cc(=O)c2cccc(Br)c2[nH]1`, `CCCn1c(=O)c(Br)cn(-c2ccccc2C)c1=O` is higher in “hERG current change (%, negative = inhibition) at 10uM” value: 0.296% for the first, 11.5% for the second.

First: COc1cc2[nH]c(=O)n(CCC(=O)N3CCN(Cc4ccccc4)CC3)c(=O)c2cc1OC
Second: CCN1CCN(C(=O)CCS(=O)(=O)c2cc3c(cc2Cl)NC(=O)CO3)CC1
The “hERG current change (%, negative = inhibition) at 10uM” value of the first is lower: -24.1% for the first, 11.7% for the second.

Going from `CSc1nc2nc(-c3ccccc3)cc(=O)n2[nH]1` to `O=c1[nH]c(=S)c2ncn(-c3ccccc3)c2[nH]1`, the “hERG current change (%, negative = inhibition) at 10uM” value rises from -9.66% to 11.7%.

Compared with `COc1ccc(CN2CCCC(C(=O)N3CCCCC3)C2)c(OC)c1.O=C(O)C(=O)O` (centres unmarked), `COc1ccc(/C=C/C(=O)OCC(=O)NC2CCCC2)c(OC)c1` is higher in “hERG current change (%, negative = inhibition) at 10uM” value: -26.7% for the first, 1.22% for the second.

First: CCC(CC)C(=O)Nc1cccc(S(=O)(=O)c2cccc(NC(=O)C(CC)CC)c2)c1
Second: O=C(Nc1cccc(F)c1)c1cccc(S(=O)(=O)N2CCOCC2)c1
The “hERG current change (%, negative = inhibition) at 10uM” value of the first is higher: 8.34% for the first, -18.9% for the second.

Compared with `COc1ccc(CN(CC(=O)NC2CCCC2)C(=O)c2onc(C(N)=O)c2N)cc1`, `COc1ccc(Cl)cc1N(CC(=O)NC1CC1)S(=O)(=O)c1ccc(C)c([N+](=O)[O-])c1` is higher in “hERG current change (%, negative = inhibition) at 10uM” value: -7.12% for the first, 11.9% for the second.

First: Cc1ccc(S(=O)(=O)NC(C(=O)N2CCOCCOCCOCC2)C(C)C)cc1 (centres unmarked)
Second: CC1CCCN(S(=O)(=O)c2ccc(NC(=O)CN3CCN(C)CC3)cc2)C1.Cl (centres unmarked)
The “hERG current change (%, negative = inhibition) at 10uM” value of the first is higher: 10.1% for the first, -17.8% for the second.

Compared with `COc1ccc(N=C2SC(C(N)=O)CC(=O)N2Cc2ccc3c(c2)OCO3)cc1` (centres unmarked), `COc1ccc(S(=O)(=O)NCc2ccc3c(c2)OCO3)cc1C(=O)O` is higher in “hERG current change (%, negative = inhibition) at 10uM” value: 16.2% for the first, 22.5% for the second.

Compared with `Cn1c(SCC(=O)Nc2ccc3nc(SCC(=O)NC4CC4)sc3c2)nnc1-c1ccccc1`, `CSc1cccc(NC(=O)CCn2c(=O)c3cccn3c3cccnc32)c1` is higher in “hERG current change (%, negative = inhibition) at 10uM” value: -5.5% for the first, 7.74% for the second.

First: COc1ccccc1/C(C)=N/Oc1cc(N)cc([N+](=O)[O-])c1
Second: O=C(Nc1ccccc1)Nc1cc([N+](=O)[O-])ccc1F
The “hERG current change (%, negative = inhibition) at 10uM” value of the first is higher: 10.9% for the first, 1.93% for the second.

Going from `O=C(NCc1cccs1)c1ccccc1[N+](=O)[O-]` to `O=[N+]([O-])c1ccc(C[n+]2cccc3ccccc32)cc1.[Cl-]`, the “hERG current change (%, negative = inhibition) at 10uM” value rises from -11.4% to -3.07%.

First: COc1cccc(C(=O)N=c2sc3c(C)ccc(OC)c3n2C)c1
Second: CCOC(=O)Cc1cc(-c2ccc(OC)cc2)nc2ccc3ccccc3c12
The “hERG current change (%, negative = inhibition) at 10uM” value of the first is higher: 0.931% for the first, -3.38% for the second.

First: O=[N+]([O-])CC(c1ccccc1)c1c[nH]c2ccccc12 (centres unmarked)
Second: Cn1nc2c3ccccc3n(Cc3ccccc3)c2nc1=S
The “hERG current change (%, negative = inhibition) at 10uM” value of the first is lower: 10.6% for the first, 14.1% for the second.

First: CCCCc1n[nH]c(=S)n1Cc1ccc(C)cc1
Second: CCCCn1c(C)c(C(=O)OCC)c2c(CN3CCCC3)c(O)ccc21
The “hERG current change (%, negative = inhibition) at 10uM” value of the first is higher: -3.67% for the first, -72% for the second.

Compared with `CC(Sc1nc(C(C)(C)C)cc(-c2ccccc2)c1C#N)C(=O)Nc1ccccc1` (centres unmarked), `C[C@@H](C(=O)Nc1ccc2ccccc2c1)[C@@H]1C[C@@]1(C)[C@@H](N)c1ccccc1.Cl` is lower in “hERG current change (%, negative = inhibition) at 10uM” value: 0.885% for the first, -1.94% for the second.

First: CSCC(C)N1CCC(CCC(=O)NC2CC2)CC1 (centres unmarked)
Second: Cc1ccc(NC(=O)CCN2CCOCC2)cc1C
The “hERG current change (%, negative = inhibition) at 10uM” value of the first is lower: -18.1% for the first, 14.1% for the second.

First: Cn1c(COc2ccc(C(=O)O)cc2)nc2ccccc21
Second: CC(=O)c1c(COC(=O)c2ccc(F)cc2)nc2ccccc2[n+]1[O-]
The “hERG current change (%, negative = inhibition) at 10uM” value of the first is higher: 14.7% for the first, 10.6% for the second.

First: O=C(Nc1ccc(F)cc1)N1CCn2c(nc3ccccc32)C1
Second: CC(=O)Nc1ccc(NC(=O)Oc2ccccc2)cc1
The “hERG current change (%, negative = inhibition) at 10uM” value of the first is lower: -17% for the first, 17.3% for the second.

First: Cc1ccc(-c2ccc(/C=N/c3ncn[nH]3)o2)cc1Cl
Second: Clc1cccc(-c2ccc(/C=N/n3cnnc3)o2)c1
The “hERG current change (%, negative = inhibition) at 10uM” value of the first is higher: 11.6% for the first, -15.6% for the second.

First: CCn1c(CNC(=O)c2ccco2)nnc1SCC(=O)c1ccc(OC)cc1
Second: COC(=O)c1ccccc1NC(=S)NC(=O)COc1ccc(C(C)C)cc1
The “hERG current change (%, negative = inhibition) at 10uM” value of the first is lower: -17.1% for the first, -1.66% for the second.

Compared with `Cc1[nH]c2ccccc2c1C(Nc1nccs1)c1ccncc1` (centres unmarked), `O=C(/C=C/c1cccs1)Nc1cccnc1` is lower in “hERG current change (%, negative = inhibition) at 10uM” value: -19.9% for the first, -28.5% for the second.

First: O=C(NCc1ccccc1)c1ccc(CS(=O)(=O)Cc2ccc(F)cc2)o1
Second: CN(Cc1ccccc1)c1ccc(C(CC(N)=O)NC(=O)Cc2ccc(Br)cc2)cc1[N+](=O)[O-] (centres unmarked)
The “hERG current change (%, negative = inhibition) at 10uM” value of the first is lower: 3.24% for the first, 10% for the second.

First: Cc1noc(C)c1COc1ccc(C(=O)OCc2nnc(-c3ccc(Cl)cc3)o2)cc1
Second: Cc1cc(N2CCOCC2)n2nc(C)c(-c3ccc(Cl)cc3)c2n1
The “hERG current change (%, negative = inhibition) at 10uM” value of the first is higher: 10.1% for the first, 8.58% for the second.

Going from `Cc1cc(C=C2C(=O)N(C)C(=S)N(C)C2=O)c(C)n1-c1cccnc1` to `CCc1ccccc1NC(=O)CCCN1C(=O)c2cccnc2C1=O`, the “hERG current change (%, negative = inhibition) at 10uM” value rises from 0.86% to 7.97%.

Going from `CCc1ccc(O)c(CNCCNCc2cc(CC)ccc2O)c1` to `Fc1cccc(NC(=S)NCc2ccc(Cl)cc2)c1`, the “hERG current change (%, negative = inhibition) at 10uM” value rises from -55.2% to 14.4%.

Going from `COC(=O)c1ccc(NC(=S)N2CCN(C)CC2)cc1` to `Cc1ccc(NC(=O)CS(=O)CC(=O)NCC2CCCO2)cc1` (centres unmarked), the “hERG current change (%, negative = inhibition) at 10uM” value rises from 3.76% to 12.7%.

First: C=C(C)COc1ccc2c(CC)cc(=O)oc2c1C
Second: CCOC(=O)Oc1ccc2oc(=O)cc(C)c2c1
The “hERG current change (%, negative = inhibition) at 10uM” value of the first is lower: 7.78% for the first, 15.9% for the second.

Going from `CCOC(=O)Cc1csc(NC(=O)COc2ccc3c(C)cc(=O)oc3c2)n1` to `CCC(=O)Nc1cc2[nH]c(=O)cc(C)c2cc1C`, the “hERG current change (%, negative = inhibition) at 10uM” value rises from -20.7% to 33.3%.

First: O=C(NCc1ccco1)c1cc(-c2ccccc2)c(N2CCOCC2)s1
Second: Cc1c(C(=O)Nc2ccccc2)cc(-c2ccccc2)n1CCCN1CCOCC1
The “hERG current change (%, negative = inhibition) at 10uM” value of the first is higher: -4.63% for the first, -22.1% for the second.

Compared with `CCOC(=O)c1c(N)sc2c(OCC)c(Br)ccc12`, `COc1cc2sc(C)nc2c2sccc12` is lower in “hERG current change (%, negative = inhibition) at 10uM” value: 19.1% for the first, 2.95% for the second.

Going from `O=C(CCn1c2c(c3ccccc31)CCCC2)NNC(=O)c1ccccc1C(=O)O` to `O=C(N/N=C/c1cccn1-c1cccc(C(=O)O)c1)Nc1ccccc1`, the “hERG current change (%, negative = inhibition) at 10uM” value falls from 12.7% to 2.66%.

Going from `CCOC(=O)c1cccc(NC(=O)/C=C/c2ccc3c(c2)OCO3)c1` to `Cc1ccc(/C=C/C(=O)OCC(=O)NC(=O)NCc2ccco2)cc1`, the “hERG current change (%, negative = inhibition) at 10uM” value rises from -2.84% to 18.7%.

Going from `O=C(O)CCCNC(=O)c1cncc(O)c1` to `CCCc1nc2ccccc2c(=O)n1/N=C/c1ccc(O)cc1O`, the “hERG current change (%, negative = inhibition) at 10uM” value rises from -13.5% to 0.651%.

Compared with `Cc1ccc(C)n1/N=C1/NC(=O)CS1`, `Cc1cccc(C)c1NC1=NCCCCC1` is higher in “hERG current change (%, negative = inhibition) at 10uM” value: -4.04% for the first, 14.8% for the second.

Compared with `CCN(CC(=O)Nc1ccccc1C(F)(F)F)C(=O)c1cc2c(s1)CCCCC2`, `O=c1c2c3c(sc2n(CCN2CCCCC2)c(=O)n1Cc1ccco1)CCCCC3` is lower in “hERG current change (%, negative = inhibition) at 10uM” value: -24.3% for the first, -69.1% for the second.

First: Cc1nc(Nc2ccc(Cl)cc2)c(C#N)c(=O)[nH]1
Second: FC(F)(F)c1nnc(Nc2ccc(Cl)cc2)s1
The “hERG current change (%, negative = inhibition) at 10uM” value of the first is higher: 11.3% for the first, 9.02% for the second.

Compared with `CC(C)C(=O)NC(Nc1cccc2cccnc12)C(Cl)(Cl)Cl` (centres unmarked), `CCCNC(=S)Nc1ccc(Cl)cc1Cl` is higher in “hERG current change (%, negative = inhibition) at 10uM” value: -17.8% for the first, 7.89% for the second.

First: CC(C)N1C(=O)CCC1C(=O)NCc1ccco1 (centres unmarked)
Second: CC(C)OC(=O)CSc1nc2cc3c(cc2cc1C#N)OCO3
The “hERG current change (%, negative = inhibition) at 10uM” value of the first is lower: -3.4% for the first, 18.1% for the second.

Going from `COc1ccc(C2OCC3(CO2)SC(N)=NC3=O)cc1` (centres unmarked) to `CCN(CC)S(=O)(=O)c1ccc2c(c1)nc(SCn1nnc3ccccc3c1=O)n2CC`, the “hERG current change (%, negative = inhibition) at 10uM” value rises from -1.61% to 21.1%.

Going from `Cc1ccc(C(C)(c2ccc(N)cc2)c2ccc(N)cc2)cc1` to `COc1ccc(-c2cc(C(F)(F)F)nc(SCC(=O)N(C)Cc3cn(C)nc3C)n2)cc1OC`, the “hERG current change (%, negative = inhibition) at 10uM” value falls from -1.66% to -36.2%.

For `Cc1c(CBr)[n+](=O)c2c(n1[O-])C(Br)CCC2Br` (centres unmarked), the “hERG current change (%, negative = inhibition) at 10uM” value was 22.8%.
